# The list shows a part of the results.
# B1: CPA (Cicer arietinum) (protein)
# chain: MAFSYLNLVLVTLTTLFFLQTTKVKSQKSVSFHITNFTISRPSITLQGTAEFLPNVLLLNDIEHPVFVVGRALYSKPITLWNNKTGKVASFVTSFTFDVQDLKKTVPGHGLVFFLAPSGSEIPFSSDGGNLGVVDGKNAFNRFVGVEFDNFVNSWDPKYSHVGINVNSLISTKTVKWNRVSGELVKVSIVYDSVSTTLTVIVTYKNGQISILSQLVDLKAVLPDTVNIGFSASTTLVSPRQLHNIHSWSFTSTFET
# What was measured:
# Experiment in all cases: glycan array binding signal (z-score within array); higher = stronger binding
# Settings in all cases: glycan notation: IUPAC condensed, linker removed
# [1] = target: Neu5Ac(a2-3)Gal(b1-3)GalNAc(b1-3)Gal(a1-4)Gal(b1-4)Glc
# In short: (§1)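 Columns mapping to the same glycan were averaged after glycan names were converted to IUPAC-condensed notation. The data come from 3228 arrays in the Consortium for Functional Glycomics database, limited to those with an available protein sequence. Binding is reported as a within-array Z-score averaged across arrays of one protein sequence and across linkers.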
# [2] = target: Neu5Ac(a2-3)Gal(b1-3)GalNAc(b1-4)[Neu5Ac(a2-3)]Gal(b1-4)Glc
# In short: as §1
# [3] = target: Neu5Ac(a2-3)Gal(b1-3)GalNAc(b1-4)[Neu5Ac(a2-8)Neu5Ac(a2-3)]Gal(b1-4)Glc
# In short: as §1
# [4] = target: Neu5Ac(a2-3)Gal(b1-3)GalNAc6S
# In short: as §1
# [5] = target: Neu5Ac(a2-3)Gal(b1-3)GlcNAc
# In short: as §1
# [6] = target: Neu5Ac(a2-3)Gal(b1-3)GlcNAc(b1-2)Man
# In short: as §1
# [7] = target: Neu5Ac(a2-3)Gal(b1-3)GlcNAc(b1-2)Man(a1-3)[GlcNAc(b1-4)][Neu5Ac(a2-3)Gal(b1-3)GlcNAc(b1-2)Man(a1-6)]Man(b1-4)GlcNAc(b1-4)GlcNAc
# In short: as §1
# [8] = target: Neu5Ac(a2-3)Gal(b1-3)GlcNAc(b1-2)Man(a1-3)[Neu5Ac(a2-3)Gal(b1-3)GlcNAc(b1-2)Man(a1-6)]Man(b1-4)GlcNAc(b1-4)GlcNAc
# In short: as §1
# [9] = target: Neu5Ac(a2-3)Gal(b1-3)GlcNAc(b1-3)Gal(b1-3)GlcNAc
# In short: as §1
# [10] = target: Neu5Ac(a2-3)Gal(b1-3)GlcNAc(b1-3)Gal(b1-4)GlcNAc
# In short: as §1
# [11] = target: Neu5Ac(a2-3)Gal(b1-3)GlcNAc(b1-3)GalNAc
# In short: as §1
# [12] = target: Neu5Ac(a2-3)Gal(b1-3)GlcNAc(b1-4)Gal(b1-4)Glc
# In short: as §1
# [13] = target: Neu5Ac(a2-3)Gal(b1-3)GlcNAc(b1-6)GalNAc
# In short: as §1
# [14] = target: Neu5Ac(a2-3)Gal(b1-3)GlcNAc6S
# In short: as §1
# [15] = target: Neu5Ac(a2-3)Gal(b1-3)[Fuc(a1-4)]GlcNAc
# In short: as §1
# [16] = target: Neu5Ac(a2-3)Gal(b1-3)[Fuc(a1-4)]GlcNAc(b1-3)Gal(b1-3)[Fuc(a1-4)]GlcNAc
# In short: as §1
# [17] = target: Neu5Ac(a2-3)Gal(b1-3)[Fuc(a1-4)]GlcNAc(b1-3)Gal(b1-4)[Fuc(a1-3)]GlcNAc
# In short: as §1
# [18] = target: Neu5Ac(a2-3)Gal(b1-3)[GlcNAc(b1-6)]GalNAc
# In short: as §1
# [19] = target: Neu5Ac(a2-3)Gal(b1-3)[Neu5Ac(a2-6)]GalNAc
# In short: as §1
# [20] = target: Neu5Ac(a2-3)Gal(b1-3)[Neu5Ac(a2-6)]GlcNAc(b1-3)[Fuc(a1-3)[Gal(b1-4)]GlcNAc(b1-6)]Gal(b1-4)Glc
# In short: as §1
# [21] = target: Neu5Ac(a2-3)Gal(b1-3)]Neu5Ac(a2-3)Gal(b1-4)]GlcNAc
# In short: as §1
# [22] = target: Neu5Ac(a2-3)Gal(b1-4)Glc
# In short: as §1
# [23] = target: Neu5Ac(a2-3)Gal(b1-4)GlcNAc
# In short: as §1
# [24] = target: Neu5Ac(a2-3)Gal(b1-4)GlcNAc(b1-2)Man
# In short: as §1
# [25] = target: Neu5Ac(a2-3)Gal(b1-4)GlcNAc(b1-2)Man(a1-3)[GlcNAc(b1-4)][Neu5Ac(a2-3)Gal(b1-4)GlcNAc(b1-2)Man(a1-6)]Man(b1-4)GlcNAc(b1-4)GlcNAc
# In short: as §1
# [26] = target: Neu5Ac(a2-3)Gal(b1-4)GlcNAc(b1-2)Man(a1-3)[Neu5Ac(a2-3)Gal(b1-4)GlcNAc(b1-2)Man(a1-6)]Man(b1-4)GlcNAc(b1-4)GlcNAc
# In short: as §1
# [27] = target: Neu5Ac(a2-3)Gal(b1-4)GlcNAc(b1-2)Man(a1-3)[Neu5Ac(a2-3)Gal(b1-4)GlcNAc(b1-2)Man(a1-6)]Man(b1-4)GlcNAc(b1-4)[Fuc(a1-6)]GlcNAc
# In short: as §1
# [28] = target: Neu5Ac(a2-3)Gal(b1-4)GlcNAc(b1-2)Man(a1-3)[Neu5Ac(a2-6)Gal(b1-4)GlcNAc(b1-2)Man(a1-6)]Man(b1-4)GlcNAc(b1-4)GlcNAc
# In short: as §1
# [29] = target: Neu5Ac(a2-3)Gal(b1-4)GlcNAc(b1-2)[Neu5Ac(a2-3)Gal(b1-4)GlcNAc(b1-4)]Man(a1-3)[GlcNAc(b1-4)][Neu5Ac(a2-3)Gal(b1-4)GlcNAc(b1-2)[Neu5Ac(a2-3)Gal(b1-4)GlcNAc(b1-6)]Man(a1-6)]Man(b1-4)GlcNAc(b1-4)GlcNAc
# In short: as §1
# [30] = target: Neu5Ac(a2-3)Gal(b1-4)GlcNAc(b1-2)[Neu5Ac(a2-3)Gal(b1-4)GlcNAc(b1-4)]Man(a1-3)[GlcNAc(b1-4)][Neu5Ac(a2-3)Gal(b1-4)GlcNAc(b1-4)Man(a1-6)]Man(b1-4)GlcNAc(b1-4)GlcNAc
# In short: as §1
# [31] = target: Neu5Ac(a2-3)Gal(b1-4)GlcNAc(b1-2)[Neu5Ac(a2-3)Gal(b1-4)GlcNAc(b1-6)]Man(a1-6)[Neu5Ac(a2-3)Gal(b1-4)GlcNAc(b1-2)Man(a1-3)]Man(b1-4)GlcNAc(b1-4)GlcNAc
# In short: as §1
# [32] = target: Neu5Ac(a2-3)Gal(b1-4)GlcNAc(b1-2)[Neu5Ac(a2-3)Gal(b1-4)GlcNAc(b1-6)]Man(a1-6)[Neu5Ac(a2-3)Gal(b1-4)GlcNAc(b1-2)Man(a1-3)][GlcNAc(b1-4)]Man(b1-4)GlcNAc(b1-4)GlcNAc
# In short: as §1
# [33] = target: Neu5Ac(a2-3)Gal(b1-4)GlcNAc(b1-3)Gal
# In short: as §1
# [34] = target: Neu5Ac(a2-3)Gal(b1-4)GlcNAc(b1-3)Gal(b1-3)GlcNAc
# In short: as §1
# [35] = target: Neu5Ac(a2-3)Gal(b1-4)GlcNAc(b1-3)Gal(b1-4)GlcNAc
# In short: as §1
# [36] = target: Neu5Ac(a2-3)Gal(b1-4)GlcNAc(b1-3)Gal(b1-4)GlcNAc(b1-2)Man(a1-3)[Neu5Ac(a2-3)Gal(b1-4)GlcNAc(b1-3)Gal(b1-4)GlcNAc(b1-2)Man(a1-6)]Man(b1-4)GlcNAc(b1-4)GlcNAc
# In short: as §1
# [37] = target: Neu5Ac(a2-3)Gal(b1-4)GlcNAc(b1-3)Gal(b1-4)GlcNAc(b1-3)Gal(b1-4)GlcNAc
# In short: as §1
binder,measurement,setting,value
B1,glycan array binding signal (z-score),[1],-0.601
same,glycan array binding signal (z-score),[2],-0.141
same,glycan array binding signal (z-score),[3],-0.373
same,glycan array binding signal (z-score),[4],-0.443
same,glycan array binding signal (z-score),[5],-0.269
same,glycan array binding signal (z-score),[6],0.385
same,glycan array binding signal (z-score),[7],-0.065
same,glycan array binding signal (z-score),[8],0.226
same,glycan array binding signal (z-score),[9],-0.603
same,glycan array binding signal (z-score),[10],-0.518
same,glycan array binding signal (z-score),[11],-0.614
same,glycan array binding signal (z-score),[12],-0.4
same,glycan array binding signal (z-score),[13],-0.278
same,glycan array binding signal (z-score),[14],0.504
same,glycan array binding signal (z-score),[15],-0.315
same,glycan array binding signal (z-score),[16],-0.435
same,glycan array binding signal (z-score),[17],0.512
same,glycan array binding signal (z-score),[18],-0.349
same,glycan array binding signal (z-score),[19],-0.285
same,glycan array binding signal (z-score),[20],-0.457
same,glycan array binding signal (z-score),[21],-0.652
same,glycan array binding signal (z-score),[22],-0.168
same,glycan array binding signal (z-score),[23],-0.292
same,glycan array binding signal (z-score),[24],0.675
same,glycan array binding signal (z-score),[25],-0.279
same,glycan array binding signal (z-score),[26],-0.242
same,glycan array binding signal (z-score),[27],-0.513
same,glycan array binding signal (z-score),[28],-0.434
same,glycan array binding signal (z-score),[29],-0.268
same,glycan array binding signal (z-score),[30],-0.568
same,glycan array binding signal (z-score),[31],0.425
same,glycan array binding signal (z-score),[32],-0.636
same,glycan array binding signal (z-score),[33],-0.66
same,glycan array binding signal (z-score),[34],-0.633
same,glycan array binding signal (z-score),[35],-0.763
same,glycan array binding signal (z-score),[36],2.85
same,glycan array binding signal (z-score),[37],-0.587

# From the supplement of paper PMC8728848
